From PubChem BioAssay (NCATS)
This is one part of the list. The main result of the screen is listed elsewhere. These columns were measured beside it and carry no call. Compounds called inactive in the main read-out are mostly missing here. Words in brackets tell the shape of the fitted curve; partial curves, single points and poor fits give uncertain potencies.

test: qHTS Assay for Lipid Storage Modulators (AID 1519); conditions: Drosophila S3 cells, BODIPY lipid droplet/cell ratio, laser cytometry; measured here: lipid (BODIPY) channel AC50; cells loaded with oleic acid
How it was run: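 Cells seeded at 5,000 per well were treated with compounds over a concentration series and loaded with oleic acid (400 uM, as added). Lipid droplet fluorescence (488 nm excitation, 500-530 nm channel) was read by laser-scanning cytometry and normalized to 20 uM Triacsin C.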
Tags describe the fitted curve by direction and shape.

Compound	AC50
C[C@@H]1C[C@H]2[C@H]3C[C@@H](F)C4=CC(=O)C=C[C@]4(C)[C@@]3(Cl)[C@@H](O)C[C@@]2(C)[C@@H]1C(=O)COC(=O)C(C)(C)C	22.4 µM [falling, single point]
O=C(c1csnn1)N1CCC2(CC1)CCN(c1ccccn1)CC2	0.0708 µM [rising, full curve, poor fit]
CS(=O)(=O)N1CCC2(CCN(Cc3nccs3)CC2)CC1	0.0631 µM [rising, full curve, poor fit]
CS(=O)(=O)Nc1cccc(-c2nc(NCc3cccnc3)c3ccccc3n2)c1	0.0251 µM [rising, full curve]
CCC(=O)OCC(=O)C1(OC(=O)CC)C(C)CC2C3CCC4=CC(=O)C=CC4(C)C3(Cl)C(O)CC21C (centres undefined)	56.2 µM [rising, partial curve, poor fit]
COC(=O)CC1[C@@]2(C)C[C@@]34OC5(C)OC6(CC[C@@]7(C)C(c8ccoc8)OC(=O)C(C(C)=O)C7[C@]6(O5)C(O)[C@@]3(O)C2O)[C@]14C (some centres undefined)	17.8 µM [rising, partial curve, poor fit]
O=c1c(-c2cccc(Cl)c2)nc2cncnc2n1C1CC1	1.26 µM [rising, full curve, poor fit]
COc1ccc(-c2c(O)c3c(OC)c4c(cc3oc2=O)OC(C)(C)CC4)cc1	22.4 µM [rising, partial curve, poor fit]
O=C(c1cccc(F)c1)N1CCC2(CCCN(Cc3nccs3)C2)CC1	0.00794 µM [rising, full curve, poor fit]
O=C(c1ccco1)N1CCC2(CC1)CN(c1cccc(-c3ccccc3)c1)C2	7.08 µM [rising, single point]
N#Cc1cccc(NC(=O)N2CCC3(CC2)CCN(C(=O)c2cnccn2)CC3)c1	0.00631 µM [rising, full curve, poor fit]
COc1ccccc1CN1CC2(CCN(S(=O)(=O)c3ccccc3)CC2)C1	3.98 µM [rising, partial curve]
CC(Oc1ccc(O)cc1)(P(=O)(O)O)P(=O)(O)O	2.51 µM [rising, full curve, poor fit]
O=C(c1cc(C(F)(F)F)cc(C(F)(F)F)c1)N1CCC[C@@]2(CCN(Cc3ccccc3)C2)C1	3.55 µM [rising, partial curve, poor fit]
CN(Cc1ccco1)c1cc(-c2cccc(C#N)c2)ncn1	1.78 µM [rising, full curve]
Cn1cc(-c2nc3cnc(N4CCOCC4)nc3n(CCC#N)c2=O)c2ccccc21	15.8 µM [rising, single point]
Cn1c(=O)c(-c2ccccc2)nc2cnc(N3CCOCC3)nc21	1.26 µM [rising, partial curve, poor fit]

Compound	AC50
Cc1nc2cnc(N(C)C)nc2n(C)c1=O	7.08 µM [rising, partial curve, poor fit]
C1COC(NC(C2CC2)C2CC2)=N1	2.51 µM [rising, full curve, poor fit]
C#CCN(C)Cc1ccccc1	44.7 µM [rising, single point]
C[C@H]1C[C@@H]2[C@H]3CCC4=CC(=O)C=C[C@@]4(C)[C@@]3(Cl)[C@@H](O)C[C@]2(C)[C@]1(OC(=O)c1ccco1)C(=O)CCl	15.8 µM [falling, single point]
C=CCCCCCCCCCCCC(O)CC(O)COC(C)=O (centres undefined) (tested in a mixture with another compound)	0.178 µM [rising, full curve, poor fit]
COc1ccc(-c2nc3cnc(N(C)C)nc3n(Cc3ccc(F)cc3)c2=O)cc1	2.51 µM [rising, partial curve]
Cc1noc(C)c1-c1nc(N(C)C)c2ccccc2n1	0.178 µM [rising, full curve, poor fit]
CC1(C)C(=O)C=C[C@@]2(C)C1C=C[C@@]1(C)C2CC[C@@]2(C)C(c3ccoc3)OC(=O)C3OC312 (some centres undefined)	35.5 µM [falling, single point]
COc1ccc(Oc2ncc3nc(-c4ccc(F)cc4)c(=O)n(C[C@H]4CCCO4)c3n2)cc1	39.8 µM [falling, single point]
NC(N)=Nc1nc(CSCC/C(N)=N\S(N)(=O)=O)cs1	39.8 µM [rising, single point]
Cc1noc(C)c1C(=O)N1CCC2(CCN(Cc3nccs3)CC2)CC1	2 µM [rising, partial curve, poor fit]
CC(=O)OC1CCC2(C)C(=CCC3C2CCC2(C)C3C[C@@H]3O[C@]32C(C)=O)C1 (some centres undefined)	0.0355 µM [rising, full curve, poor fit]
CN(C)C(=O)c1ccc(-c2nccc(NCc3cccs3)n2)cc1	0.794 µM [rising, full curve]
O=S(=O)(c1ccccc1)N1CCC2(CCCN(C(c3ccccc3)c3ccccc3)C2)CC1	10 µM [rising, partial curve, poor fit]
Cc1nc2cnc(Nc3ccccc3)nc2n(CCc2ccccc2)c1=O	3.98 µM [rising, full curve]
O=c1c(-c2ccc(F)cc2)nc2cnc(Oc3cccc(Cl)c3)nc2n1C[C@H]1CCCO1	39.8 µM [falling, single point]
CCOC(=O)C(CCc1ccccc1)NC(C)C(=O)N1Cc2ccccc2CC1C(=O)O (centres undefined)	35.5 µM [rising, single point]
